# The campaign covered roughly 410,000 compounds. About 5,000 (1.2%) were called active. The shares of active, inactive and inconclusive entries below differ from those in the screen. The call rests on the fitted dose curve; in most records, active means well fitted inhibition curve with a large enough effect; inconclusive means small, poorly fitted or top-dose-only effect; inactive means no such curve, though single readings can be large or run the other way. A potency beside an inconclusive call is a rough fit, not a confirmed value.
# Assay: qHTS for Inhibitors of TGF-b; further: nearly all actives have a fitted effect of over 65% in size
# Conditions: HepG2 CAGA-GFP TGF-b/SMAD3 reporter, GFP fluorescence, 18 h, TGF-beta stimulated, 500 pg/mL final; series mostly up to 46.1 µM
# How it was run: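 HEPG2 CAGA-GFP reporter cells (1000/well, DMEM with 1% FBS) received compounds, then recombinant TGF-beta at 500 pg/mL final for 18 hours at 37 degrees C. Per-cell GFP summed per well was normalised to unstimulated and stimulated DMSO controls before curve fitting.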
# Potency means the concentration at half of the fitted maximal effect; tags describe the fitted curve by direction and shape.
row,SMILES,Potency
1,CCN(CC(=O)NC(C)(C)C)Cc1cc(=O)n2c(-c3ccccc3)csc2n1,"inconclusive: 20 µM [inhibitor, partial curve, poor fit]"
2,O=C(C=Cc1ccccc1O)c1ccccc1O,"inconclusive: 25.1 µM [inhibitor, single point]"
3,CC1CCCCN1S(=O)(=O)c1ccc(C(=O)N(CCCN(C)C)c2nc3ccc(Br)cc3s2)cc1 (stereo not given),"inconclusive: 15.8 µM [inhibitor, single point]"
4,CS(=O)(=O)N(Cc1ccc(Cl)cc1)c1ccc(C(=O)NCCSc2ccccn2)cc1,"inconclusive: 35.5 µM [inhibitor, single point]"
5,C=CCOc1c(CCC)cc(CCC)cc1C(N)=O,"inconclusive: 11.2 µM [inhibitor, partial curve, poor fit]"
6,Cc1ccc(OCC(=O)NC(=S)Nc2cccc(NC(=O)c3ccccc3)c2)cc1,"inconclusive: 6.31 µM [inhibitor, single point]"
7,C/C(=N\NC(=O)c1ccc([N+](=O)[O-])cc1)c1cc2ccccc2oc1=O,"inconclusive: 10 µM [inhibitor, single point]"
8,COc1ccc(N(C)C(=O)c2cc3c(s2)-c2ccccc2OC3)cc1,"inconclusive: 15.8 µM [inhibitor, single point]"
9,Cc1ccc(NC(=O)C2CCCN(S(=O)(=O)c3ccc4c(c3)CCCC(=O)N4)C2)cc1Cl (stereo not given),"inconclusive: 15.8 µM [inhibitor, single point]"
10,Cc1ccc(CC#N)c(-c2c(CC#N)ccc(C)c2C)c1C,inactive
11,COc1cc(OC)c(OC)cc1/C=C/c1nc2ccccc2c(=O)n1-c1ccc(Br)c(C)c1,"inconclusive: 10 µM [inhibitor, partial curve, poor fit]"
12,Cc1ccccc1CN1CCN(CC(=O)NCc2ccc3c(c2)OCO3)C1=O,inactive
13,Cc1ccc(NC(=O)COc2cccc3c2OC(C)(C)C3)c(O)c1,"inconclusive: 20 µM [inhibitor, single point]"
14,Cc1cc(-c2ccc(S(=O)(=O)Nc3cccc(Cl)c3C)cc2)on1,"inconclusive: 35.5 µM [inhibitor, single point]"
15,Cc1c(C(=O)Nc2ccc(-c3nnc4n3CCCCC4)cc2)oc2ccc(Br)cc12,inactive
16,CC(CCc1ccccc1)NC(=O)c1ccc(NC(=O)c2ccc(Cl)cc2Cl)cc1 (stereo not given),"inconclusive: 35.5 µM [inhibitor, single point]"
17,COc1cc(NC(=S)NCCC(c2ccccc2)c2ccccc2)cc(OC)c1,"inconclusive: 22.4 µM [inhibitor, single point]"
18,CCOc1ccc(NC(=O)CN(C)S(=O)(=O)c2ccc3[nH]c4c(c3c2)CCCC4)cc1,"inconclusive: 35.5 µM [inhibitor, single point]"
19,COc1ccc(C(=O)N2CCN(c3nc4c(C)c(Cl)ccc4s3)CC2)c(OC)c1,"inconclusive: 7.94 µM [inhibitor, partial curve, poor fit]"
20,CN1CCN(S(=O)(=O)c2cccc(C(=O)Nc3nc(-c4ccccc4)cs3)c2)CC1,"inconclusive: 3.16 µM [inhibitor, single point]"
21,CC1CCCN(CCC(=O)Nc2ccc(Br)cc2)C1 (stereo not given),inactive
22,COc1cccc(CNc2ccccc2O)c1OCc1ccccc1F,inactive
23,COC(=O)c1c(S(C)(=O)=O)nc(-c2ccccc2)[nH]c1=O,"inconclusive: 35.5 µM [inhibitor, single point]"
24,C=C1CCN([C@@H](CC(C)C)C(=O)NCc2ccco2)S(=O)(=O)c2ccccc21,"inconclusive: 0.562 µM [inhibitor, partial curve, poor fit]"

row,SMILES,Potency
1,COc1ccc(Cl)cc1Nc1nc(Cl)nc(NCCO)n1,inactive
2,O=C(NC(=S)Nc1ccc(S(=O)(=O)N2CCCCCC2)cc1)c1cccs1,inactive
3,O=C(NCC1CCCO1)c1ccc(NC(=O)c2ccc(Br)cc2)cc1 (stereo not given),inactive
4,CCNc1nc(CN2CCOCC2)nc2sc3c(c12)CCC3,"inconclusive: 8.91 µM [inhibitor, partial curve, poor fit]"
5,COc1cc(OC)c2c(-c3ccccc3)cc(C3CCCCC3)nc2c1,"inconclusive: 35.5 µM [inhibitor, single point]"
6,Cc1ccc(-n2cccc2C(=O)NS(=O)(=O)c2ccc(C)cc2)cc1,inactive
7,Fc1ccc(NC(=S)Nc2ccccc2OC(F)F)cc1Cl,"inconclusive: 35.5 µM [inhibitor, single point]"
8,Nc1c(C(=O)Nc2ccccc2)sc2nc(-c3ccco3)ccc12,inactive
9,C/C(=N\NC(=O)COc1ccccc1[N+](=O)[O-])c1cccc(NC(=O)c2ccncc2)c1,inactive
10,C=CCn1c(C)nnc1SCC(=O)Nc1ccc2c(c1)OCCO2,inactive
11,CCc1cnc2c(c1SCCC(C)C)c(=O)n(C)c(=O)n2C,inactive
12,CCOc1ccc(-n2cc(-c3ccccc3)c3c(=S)nc[nH]c32)cc1,"inconclusive: 31.6 µM [inhibitor, single point]"
13,COc1ccc(CCNC(=O)CS(=O)(=O)Cc2nc(-c3ccc(C)cc3)oc2C)cc1OC,"inconclusive: 5.62 µM [inhibitor, single point]"
14,CCn1cc(C(=O)Nc2ccc(C(C)C)cc2)c2cc(OC)c(OC)cc2c1=O,inactive
15,NC(=O)CC(NC(=O)Cc1cccc2ccccc12)c1ccc(N2CCN(c3ccccn3)CC2)c([N+](=O)[O-])c1 (stereo not given),"inconclusive: 17.8 µM [inhibitor, single point]"
16,CCc1nn(C(CC)C(=O)NCc2cccc(OC)c2OC)c(=O)c2cc3occc3n12 (stereo not given),"inconclusive: 3.16 µM [inhibitor, partial curve, poor fit]"
17,Cc1ccc(CCNC(=O)c2cc3c(=O)n(C)c4ccccc4c3n2C)cc1,"inconclusive: 3.55 µM [inhibitor, full curve, poor fit]"
18,COc1ccc(Nc2cc(C(=O)NCCCN3CCN(C)CC3)c3ccccc3n2)cc1,inactive
19,CCCCCCC[n+]1ccc(/C=C/c2c(C)[nH]c3ccccc23)cc1,inactive
20,Cc1cccc(-n2cnc3cc(C(=O)NC4CCCCCC4)ccc32)c1,"inconclusive: 35.5 µM [inhibitor, single point]"
21,Cc1ccc(NC2CCCN(C(=O)c3cc4ncccn4n3)C2)cc1C (stereo not given),inactive
22,Cc1cccc(OCC(=O)Nc2ccccc2C(=O)OCc2cc(=O)n3nc(C4CC4)sc3n2)c1,inactive
23,COc1ccc(NC(=O)CN(c2ccccc2OC)S(C)(=O)=O)c(OC)c1,inactive
24,CC(C)n1ncc2c(C(=O)N3CCN(Cc4ccc(Cl)s4)CC3)cc(C3CC3)nc21,active: 10 µM

row,SMILES,Potency
1,Cc1cccc(C(=O)Nc2sc(C)c(-c3ccccc3)c2C#N)c1,inactive
2,Cc1ccc(CNC(=O)c2nc(S(=O)(=O)Cc3ccc(C)cc3)ncc2Cl)cc1,"inconclusive: 5.62 µM [inhibitor, single point]"
3,COc1cc(-c2nnc(SCC(=O)Oc3ccc(C)cc3C)o2)cc(OC)c1OC,inactive
4,Cc1ccc(-n2c(SCc3cn4ccsc4n3)nc3ccccc3c2=O)cc1,"inconclusive: 22.4 µM [inhibitor, single point]"
5,COCCN=c1scc(-c2ccccc2)n1/N=C/c1c[nH]c2ccccc12,"inconclusive: 12.6 µM [inhibitor, single point]"
6,COc1cc(S(=O)(=O)NCc2ccccc2)ccc1Br,"inconclusive: 35.5 µM [inhibitor, single point]"
7,CC(=O)N1CCC(C(=O)Nc2cc(C)cc(C)c2)CC1,inactive
8,O=CC1=C(c2ccccc2)Oc2ccccc2O1,"inconclusive: 22.4 µM [inhibitor, single point]"
9,COc1ccc(C2=C(C)C(=O)N(Cc3ccc(C(=O)Nc4ccc(C)c(C)c4)cc3)S2(=O)=O)cc1,"inconclusive: 11.2 µM [inhibitor, partial curve]"
10,Cc1nc2ccc(NC(=O)Cc3ccc4c(c3)OCCO4)cc2s1,"inconclusive: 0.447 µM [inhibitor, full curve]"
11,COc1ccc(NC(=O)CSCC(=O)N2CCCc3ccccc32)cc1,inactive
12,O=C(NCc1ccc2c(c1)OCO2)c1cc(-c2ccccc2Cl)on1,"inconclusive: 11.2 µM [inhibitor, partial curve, poor fit]"
13,CCCCNC(=O)C1(C)CCCCN1Cc1ccccc1-c1ccccc1 (stereo not given),"inconclusive: 22.4 µM [inhibitor, single point]"
14,COc1ccc(C2CC(C(F)(F)F)n3nc(C(N)=O)c(Cl)c3N2)cc1OC (stereo not given),inactive
15,Cc1oc(-c2ccccc2F)nc1CS(=O)(=O)CC(=O)NC(C)CCc1ccccc1 (stereo not given),"inconclusive: 12.6 µM [inhibitor, partial curve, poor fit]"
16,O=[N+]([O-])c1cc(-c2cnc3ccccc3n2)ccc1Oc1ccc(Cl)cc1,inactive
17,COc1cccc(-c2nc(SCC(=O)NC3CCCC3)c(-c3ccc(F)cc3)[nH]2)c1,"inconclusive: 28.2 µM [inhibitor, single point]"
18,CC1CCN(S(=O)(=O)c2ccc3nc(Nc4cccc(C(F)(F)F)c4)ccc3c2)CC1,"inconclusive: 2.82 µM [inhibitor, partial curve, poor fit]"
19,CCN(CC)CCN(Cc1cc2cc(C)ccc2[nH]c1=O)C(=O)Nc1ccccc1OC,inactive
20,COc1ccc(CN2CCN(Cc3c[nH]c4ccccc34)CC2)cc1OC,inactive
21,CC(C)c1ccccc1OCC(=O)NCC(c1cccs1)N1CCOCC1 (stereo not given),"inconclusive: 22.4 µM [inhibitor, single point]"
22,COc1cccc(-c2c(-c3cc(OC)cc(OC)c3)n(C)c3ccc(-c4cnc(N5CCOCC5)nc4)cc23)c1,inactive
